“And” between values parts separate entries of the source, which are not always exact repeats. Identical values can stand only once. In all, about 48,000 compounds went through this assay and about 1,200 (2.5%) were called active. Inconclusive results (about 2%) are left out.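 Rule for the calls: active = activation of at least 60% and not above a set upper limit (about 1 call in 100 departs from these limits); inconclusive = activation of 40% to 60%, or above that upper limit; inactive = activation under 40%.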 The list shows a part of the results. The source holds several records for some structures; these can differ, active in one and inactive in another.
Each molecule was assayed against Probable G-protein coupled receptor 32 (Homo sapiens) (UniProt O75388) (assay: qHTS for Agonists of Human Resolvin D1 Receptor DRV1). Conditions: CHO-K1 GPR32 beta-arrestin PathHunter luminescence, 90 min; at 76.9 µM; stronger effect = higher value; zero percent set by DMSO-only wells.
UniProt O75388, sequence (O75388 whole entry, looked up): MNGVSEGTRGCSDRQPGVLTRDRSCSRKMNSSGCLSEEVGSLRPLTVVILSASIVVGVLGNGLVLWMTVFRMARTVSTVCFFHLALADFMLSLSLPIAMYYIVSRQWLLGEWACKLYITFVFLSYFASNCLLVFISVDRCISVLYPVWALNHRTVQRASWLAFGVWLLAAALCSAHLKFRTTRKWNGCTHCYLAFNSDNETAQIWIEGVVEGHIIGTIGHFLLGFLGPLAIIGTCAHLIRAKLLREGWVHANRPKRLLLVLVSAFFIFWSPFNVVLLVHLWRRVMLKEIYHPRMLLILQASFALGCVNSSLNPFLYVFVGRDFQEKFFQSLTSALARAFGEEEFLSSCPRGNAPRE
How it was run: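 Luminescent readout of beta-Gal complementation quantifies ligand-induced beta-arrestin association with GPR32 in CHO-K1 cells; 90 min compound incubation at 37 °C, detection 1 h at room temperature.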
Note: 0% is about no effect.

Row | SMILES | activation
1 | Cc1ccc(CNCc2ccc3c(c2)n(C)c(=O)n3C)cc1 | inactive: -4.16%
2 | O=C(CCNS(=O)(=O)c1ccc(Br)s1)Nc1ccc(Br)cc1 | active: 88.6%
3 | COc1cc(NS(=O)(=O)c2ccc(NC(=O)COc3ccc(Cl)cc3Cl)cc2)nc(OC)n1 | inactive: -11.8%
4 | CCOc1cccc(CC(=O)NCc2ccc3c(c2)CCN3C(=O)c2cccc(C)c2)c1OCC | inactive: -1.19%
5 | COc1ccc(CN(C(=O)Nc2cc(C)ccc2C)C2CCN(C(C)=O)CC2)cc1 | inactive: -9.39%
6 | CCN1C(=O)c2ccccc2Sc2ccc(NC(=O)Cc3ccc(OC)c(OC)c3)cc21 | inactive: -4.9%
7 | COc1ccc2c(c1)c(=O)c(S(=O)(=O)c1ccc(F)cc1)cn2CC(=O)Nc1ccc(C)cc1C | inactive: 11.5%
8 | O=C(NCc1ccccc1Cl)C(=O)NCC(c1ccc2c(c1)OCO2)N1CCOCC1 (configuration not stated) | inactive: -13.6%
9 | COc1ccc(CNC(=O)c2cnc3sc4cc(OC)ccc4n3c2=O)cc1 | inactive: 3.03%
10 | CCOc1ccc(NC(=O)CSc2nc(-c3ccccc3)c3cc(OCC)ccc3n2)cc1 | inactive: -16.6%
11 | CCOc1ccccc1N(CC)C(=O)Cn1ncc2c1-c1ccccc1OC2 | inactive: 28.3%
12 | O=C(c1cc(S(=O)(=O)N2CCCC2)c[nH]1)N1CCN(c2cccc(Cl)c2)CC1 | inactive: -1.63%
13 | CCOc1ccc2nc(N(Cc3cccnc3)C(=O)c3ccco3)sc2c1 | inactive: -26.1%
14 | CCC(CC)C(=O)N1CCc2cc(OC)c(OC)cc2C1COc1ccc2c(C)cc(=O)oc2c1 (configuration not stated) | inactive: -4.19%
15 | COc1ccc(CNC(=O)C2CCN(C(=O)N3CCOc4ccc(C)cc43)CC2)cc1 | inactive: -7.62%
16 | CCc1cc(C(=O)N2CCN(c3ccccc3)CC2)no1 | inactive: 11.1%
17 | CC1CCCN(C(=O)c2ccc(CSc3nc4ccncc4n3Cc3ccccc3)cc2)C1 (configuration not stated) | inactive: -7.72%
18 | O=C(NCc1ccc(Cl)cc1)c1cc2cccc3c2n1CCS3 | inactive: -19.2%
19 | COc1ccccc1N1CCN(c2c3c(nc4nncn24)CCC3)CC1 | inactive: -15.6%
20 | CC(C)(C)NC(=O)Cn1cc(S(=O)(=O)Cc2ccccc2Cl)c2ccccc21 | inactive: -10.3%
21 | Cc1cccc(-n2c(=O)c3c(c4cc(C)ccc4n3C)n(CC(=O)Nc3ccc(C)c(C)c3)c2=O)c1 | inactive: -3.45%

Row | SMILES | activation
22 | COC(=O)c1sccc1S(=O)(=O)N(CC(=O)NCc1ccc(F)cc1)c1ccccc1 | inactive: -3.71%
23 | Cc1cccc(NC(=O)Cn2c(=O)n(Cc3nc(-c4ccccc4)no3)c(=O)c3ccccc32)c1 | inactive: 0.717%
24 | COc1ccc(C)cc1NS(=O)(=O)c1ccc2c(c1)CCCN2C(C)=O | inactive: -15.2%
25 | CCOC(=O)Cn1c(=N)n(CCOc2ccc(OC)cc2)c2ccccc21 | inactive: 22.9%
26 | COc1ccc(-c2nc(SCC(=O)NCC3CCCO3)c(-c3ccc(C)cc3)[nH]2)cc1OC (configuration not stated) | inactive: -23.8%
27 | C#CCN(C)CCCOc1ccc(Cl)cc1Cl | inactive: 2.13% and inactive: -2.6%
28 | CCCCNC(=O)CN1CCN(c2ccc(NC(=O)c3ccc(OC)cc3)cc2C(=O)O)CC1 | inactive: 2.28%
29 | COc1ccc(NC(=O)N2CCN(Cc3nc4ccc(C)cc4o3)CC2)cc1OC | inactive: 18.7%
30 | O=C(O)CN(CCN(CC(=O)O)CC(=O)O)CCN(CC(=O)O)CC(=O)O | active: 70.2% and inactive: 6.83%
31 | COc1ccc(-c2c(C#N)c(SCC(=O)Nc3ccc(C)c(C)c3)nc(C)c2C(=O)Nc2ccccc2)cc1OC | inactive: -18.8%
32 | CC(C)(CO)Cc1cc(C(C)(C)C)c(O)c(C(C)(C)C)c1 | inactive: -34.4%
33 | CCCN1CCN(c2ncnc3sc(C(=O)Nc4ccc(OC(F)(F)F)cc4)c(C)c23)CC1 | inactive: -23.5%
34 | CC1CCN(c2nc3ccccc3nc2SCC(=O)Nc2ccccc2C(C)C)CC1 | inactive: -11.8%
35 | Cc1nnc(N2CCCC(C(=O)Nc3cc(F)ccc3F)C2)c2nn(-c3ccccc3)c(C)c12 (configuration not stated) | inactive: 2.62%
36 | CCCn1cnc2c1c(=O)n(CCCCC(C)=O)c(=O)n2C | inactive: 14.1% and inactive: -1.37%
37 | CCCCC(=O)OCc1cc(=O)n2nc(C3CC3)sc2n1 | inactive: 15.5%
38 | CC(=O)c1ccc(NC(=O)Cn2c(=O)nc(-c3ccccc3)c3ccccc32)cc1 | inactive: -12.1%
39 | O=C(CS(=O)(=O)c1cccc2nsnc12)N1CCN(c2ccc(F)cc2)CC1 | inactive: 11.4%
40 | COc1cc(NC(=O)COCc2cc(-c3ccc4c(c3)OCO4)on2)c(OC)cc1Cl | inactive: 0.779%
41 | CCOc1ccc(C(=O)c2cn(CC(=O)Nc3ccc(C)c(Cl)c3)c3ccc(OCC)cc3c2=O)cc1 | inactive: -4.9%
42 | CCCCN(CC)CCCNC(=O)c1ccc2c(c1)N(Cc1ccc(C)cc1)C(=O)c1ccccc1S2 | inactive: -1.36%

Row | SMILES | activation
43 | Cc1cc(-c2ccc(C)c(S(=O)(=O)Nc3ccc(C)c(N(C)C)c3)c2)on1 | inactive: -20.9%
44 | CCOc1ccc(CCNC(=O)c2cc3n(n2)CCCN(Cc2ccc(C)cc2)C3=O)cc1OCC | inactive: 18.7%
45 | O=C(NC1(C(F)(F)F)N=C(c2ccccc2)N(Cc2ccccc2)C1=O)c1ccc(F)cc1 (configuration not stated) | inactive: 10.7%
46 | CCCCCCCCCCCCCCSCC(=O)O | inactive: -2.54%
47 | O=C(CCCc1nc(-c2ccc(Cl)cc2)no1)NCc1ccco1 | inactive: 15%
48 | Cn1cnc(S(=O)(=O)N2CCC(C(=O)Nc3ccc(OC(F)(F)F)cc3)CC2)c1 | inactive: -4.19%
49 | CCN(CC)c1cc(NC2CCCCC2)c2c3c(onc13)-c1ccccc1C2=O | inactive: -33.3%
50 | CC1CCN(S(=O)(=O)c2ccc3c(c2)N(CC(=O)N(C)Cc2ccccc2)C(=O)CO3)CC1 | inactive: -25.6%
51 | O=C(c1ccc2c(c1)N(Cc1ccccc1)C(=O)c1ccccc1S2(=O)=O)N1CCC(Cc2ccccc2)CC1 | inactive: -8.72%
52 | Cc1cc(C)c(NC(=O)Cn2nnc3sc4c(c3c2=O)CCC(C(C)(C)C)C4)c(C)c1 (configuration not stated) | inactive: 3.5%
53 | O=c1c2sc3ccccc3c2n(Cc2cccc(Cl)c2)c(=O)n1Cc1ccc(F)cc1 | inactive: -6.67%
54 | COc1cccc(CNC(=O)C2CCCN(c3nn4cc(-c5ccc(C)cc5)nc4s3)C2)c1 (configuration not stated) | inactive: -21.4%
55 | COc1cc(C2c3c(-c4ccccc4O)n[nH]c3C(=O)N2Cc2ccncc2)cc(OC)c1OC (configuration not stated) | inactive: -11.9%
56 | CCCCN1C(C(=O)c2ccccc2)=C(OC(=O)CC)c2ccccc2S1(=O)=O | inactive: -51.4%
57 | O=c1c2c3c(sc2nnn1CCCCOc1ccc(Cl)cc1)CCCC3 | inactive: -4.87%
58 | CCCSC1=NC2(CCN(C(=O)NC3CCCCC3)CC2)N=C1c1ccc(OC)cc1 | inactive: -25.9%
59 | COc1cc(-c2noc(-c3cc4cccc(C)c4oc3=O)n2)cc(OC)c1OC | inactive: -11.5%
60 | COc1ccc(-c2nsc(NC(=O)c3oc4ccc(Cl)cc4c3C)n2)cc1 | inactive: -0.728%
61 | CCOc1ccccc1-n1c(N)c(C(=O)OC)c2nc3ccccc3nc21 | inactive: -0.25%
62 | O=C(Nc1ccc(F)cc1)c1nc(SCc2ccccc2F)ncc1Cl | inactive: -1.65%
63 | Cc1nc(-c2cccc(F)c2)sc1CCNC(=O)Cc1ccc(F)cc1 | active: 88.1%

Row | SMILES | activation
64 | N#C/C(=C/c1ccc(O)cc1)c1nc(-c2ccc(-c3ccccc3)cc2)cs1 | inactive: -2.86%
65 | Cc1ccc(OCCn2c(CNc3ccccc3C)nc3ccccc32)cc1 | inactive: -8.8%
66 | Cn1c(C(=O)NCc2ccccc2Cl)cc2sc(Cl)cc21 | inactive: -7.61%
67 | CO/N=C(\C(=O)N[C@@H]1C(=O)N2C(C(=O)O)=C(CSc3nc(=O)c(O)nn3C)CSC12)c1csc(N)n1 (some centres not stated) | inactive: 11.2%
68 | Cc1cc(NC(=O)c2cnn(-c3ccccc3)c2-n2cccc2)ccc1Br | inactive: -5.66%
69 | COc1cccc(CNC(=O)CN(c2ccc(C)cc2)S(=O)(=O)N(C)C)c1OC | inactive: 22.2%
70 | CCc1cccc(NC(=O)Cn2c(=O)n(CC3CCC(C(=O)NC)CC3)c(=O)c3sccc32)c1 (configuration not stated) | inactive: -5.85%
71 | COc1ccc(-c2csc3ncnc(Nc4ccc(OC)cc4OC)c23)cc1 | inactive: -20%
72 | COc1cccc(-c2nc3c(C#N)c[nH]n3c2NC2CCCCC2)c1 | inactive: -12.3%
73 | Cc1cccc(N(C)C(=O)C2CCC(CNS(=O)(=O)c3cccc4nsnc34)CC2)c1 (configuration not stated) | inactive: -7.57%
74 | N#CC1=C(N)N(c2ccc(Cl)cc2)C2=C(C(=O)CCC2)C1c1cc(CN2CCOCC2)cs1 (configuration not stated) | inactive: -5.76%
75 | COc1cc(NS(=O)(=O)c2cc(Br)cc3c2N(C(C)=O)C(C)C3)cc(OC)c1 (configuration not stated) | inactive: 7.96%
76 | O=C(NC1CCCCC1)c1ccc2c(c1)N(Cc1ccc(F)cc1)C(=O)c1ccccc1S2(=O)=O | inactive: -25.4%
77 | COc1cccc(CNC(=O)Cn2c(=O)cc(C)c3c(C)nn(C)c32)c1OC | inactive: 36.3%
78 | CCc1ccc(NCc2cc3cc4c(cc3n(CC(=O)Nc3ccc(OC)cc3)c2=O)OCO4)cc1 | inactive: -67.6%
79 | Cn1c(SCC(=O)N2CCOCC2)ncc(C(=O)Nc2ccc(F)cc2)c1=O | inactive: -4.79%
80 | CCc1ccc(C2c3c(-c4cc(C)ccc4O)n[nH]c3C(=O)N2CCO)cc1 (configuration not stated) | inactive: -1.07%
81 | CCOC(=O)c1c(S(=O)(=O)NCC(=O)Nc2cccc(SC)c2)c(C)n(C)c1C | inactive: -11.9%
82 | CCCSc1nc2sc3c(c2c(=O)n1-c1ccc(C)cc1)CCCC3 | inactive: 0.357%
